Laboratory results from the supplement of paper PMC11417369.
± gives the standard deviation of the averaged measurements. The list shows a part of the results.

system: PfAP2-I AP2 domain 3 (GST-tagged); assay: gcPBM binding intensity (ln(normalized median fluorescence intensity)); higher = stronger DNA binding
In short: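 GST-tagged P. falciparum DNA-binding domains, expressed in E. coli (about 25 μg on average), were applied for 1 h to an Agilent 4 × 180k array of primer-extended double-stranded 36-bp intergenic genomic probes plus negative controls. The binding buffer was 1× PBS with 1% milk, 0.2 mg/ml BSA, 0.5% salmon testes DNA and 0.03% Triton X-100. Bound protein was detected with Alexa488 anti-GST antibody and scanned at 488 nm. Binding intensity is the highest Masliner-normalised natural-log median intensity across replicate spots of either probe orientation.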

Sequence	gcPBM binding intensity (ln)
TTTATCCAATAATCTGGTACACAATAATCATTCATG [XGTACX_site6192]	7.63 ± 0.42
ATTCATATATACTTCACACACATTTTATCATTCAAA [CACACA_site2468]	8.16 ± 0.61
TTTCTATTTATTTCAAGTACTAAAAATATATATAAC [XGTACX_site8203]	7.83 ± 0.29
TTTTTTTACTTAATAGTTCAACATATATCTCAATGT [CACACA_negctrl_site620]	7.55 ± 0.55
TAAATACTTTTATGTACACACATATAGATATATATT [CACACA_site5416]	8 ± 0.16
TTGAACCTGATAAATACACACAATATATATTTTTTT [CACACA_site2173]	7.61 ± 0.59
GTGATAAATATTATATGTACATATAATATTTATGTC [XGTACX_site8023]	8.07 ± 0.28
TCAAAAACGAGACATGCATGCAATTCATTTTGATTC [TGCATGCA_site212]	7.53 ± 1.1
CCATTCTTACTTTATTGTACTTGAAAATTTTTTTTA [XGTACX_site6160]	8.12 ± 0.38
TATATAATAAGATATGCATGCACATGTAAAATGAAT [TGCATGCA_site499]	9.02 ± 1.1
TTAAAATAGATAAATAGTACTCTTTCCATTATGTAA [XGTACX_site6299]	7.41 ± 0.59
ATAATGTTTTATAATACACACATTAGATATATAAAT [CACACA_site7834]	7.86 ± 0.46
TCATATAACACTTGATGTACAAGAATCCAAGTTGCA [XGTACX_site8758]	7.78 ± 0.55
ATATGTATAATATATATATATATATATATATATATA [CACACA_negctrl_site623]	9.09 ± 0.57
ATATATATTTAAACTACACACGCATATCTTAGAAAT [CACACA_site8348]	7.86 ± 0.49
ACCCACTTTTGAGGTGTGCACAATAAATTGGACATT	10.52 ± 0.021
AGGAAAAAAAAAATGACACACATATTTGAATTAAAA [CACACA_site1352]	7.54 ± 0.64
TAAGAGATATTTTATTAAATGTTTTATGAATCATGT [TGCATGCA_negctrl_site264]	7.17 ± 0.6
GTACATACATAAAACACACACATATAGATTTATATA [CACACA_site6945]	7.73 ± 0.47

Sequence	gcPBM binding intensity (ln)
ACTCATAAAAATAGATGTACTTTAATAATTTGATTT [XGTACX_site8763]	7.68 ± 0.2
AAAAAAAAAAGACACACACACATATAAATATAAATA [CACACA_site6899]	7.67 ± 0.42
TCAAACGGTTAAATATGTACATATATATATATATAT [XGTACX_site2339]	9.07 ± 0.69
TTTCAAACAAAAAGACGTACACTGAAGTTATCCGTC [XGTACX_site8824]	7.59 ± 0.2
TTGTATTCATAACAACGTACATATTTTGTAACTAAA [XGTACX_site4029]	7.68 ± 0.49
AAGGAAATATAATATACACACATAAGTGTACTTCTA [CACACA_site6079]	7.66 ± 0.44
CAATCAAATAGACACACACACACCTAAACATAAAAG [CACACA_site7322]	7.96 ± 0.46
ATATTAAAATGAAAATATAAAAAAAAAAAAAAAAAA [CACACA_negctrl_site1559]	8.09 ± 0.38
TATATATATAAACACACACACACCAAAGCGTAGCGC [CACACA_site7903]	8.99 ± 0.41
TATTAATAAAAGCATTGTACAGTAATAAATAAATAA [XGTACX_site2924]	7.94 ± 0.73
AGCCATTAATTCTCTACACACCTTTATGTTATTTAG [CACACA_site3635]	8.06 ± 0.74
ATTCATAATATTATAACACACGCTTATTACATAAAG [CACACA_site980]	7.99 ± 0.57
CGCATGTATTTTGTGTGTACTAATTATAATCAACTT [XGTACX_site4709]	7.99 ± 0.47
TTTTACATATACATGTGTACATAACAAAGAATGTTT [XGTACX_site2406]	7.88 ± 0.57
AGTGTATTAATTCTCACACACTAAGAAAAAAAAAAA [CACACA_site6007]	8.39 ± 0.16
TTTTTTAATAAATGGTGTACATATTTTTTTTATACT [XGTACX_site8584]	8.05 ± 0.27
TAATATTGTATTTATGTACACACATTTTTGGAATAT [CACACA_site8371]	7.81 ± 0.4
TTTAATATTTTTTTTTGTACTTATTTGTAGAAATAT [XGTACX_site3046]	7.7 ± 0.35
CTATTTTTTGTATAAACATGCATATAGTAGATATGG [TGCATGCA_site670]	7.92 ± 0.39

Sequence	gcPBM binding intensity (ln)
AGGCTCATTTTTTTTAGTACATCAAAAAAAAAAAAA [TGCATGCA_negctrl_site591]	8.24 ± 0.54
TGTATGTTTATTTGATGTACGGTCATACATATAAAT [XGTACX_site5176]	7.87 ± 0.48
AAATTCATATGAATTTGTACGGACATAAATATCTTC [XGTACX_site1838]	7.57 ± 0.67
ATGTCTACAGTTTTTGCACACATATAAATAAAAAAA [CACACA_site3600]	9.65 ± 0.25
ATTTTTTTTTTTTTTTTTTTTGAGAAGAACTTTTTC [CACACA_negctrl_site1019]	7.64 ± 0.35
AAACATCATAAATATACACACATATTTATATTTATA [CACACA_site6437]	7.66 ± 0.47
CCATAACTCATATGCACACATAAATATTACATATAT [CACACA_site3821]	8.87 ± 0.13
TTTTAAAAAGAAAAAAATAACATACATATATATATA [CACACA_negctrl_site240]	9.155 ± 0.049
TAACACATATATTGTTGTACATTCAAACTGAAAAAT [XGTACX_site5565]	7.82 ± 0.34
TTTTTTTTATTAAAAAGTACTAAACAAATTATATAT [XGTACX_site121]	7.82 ± 0.31
AGATGGAGAAAGTTATGTACACATATATAAATATGT [XGTACX_site6150]	7.87 ± 0.26
CCCATGTAATGAACATGTACATAATAATTTATAAAT [XGTACX_site8687]	7.88 ± 0.61
ATATATATATATATGTGTACATATGTATATATATCT [XGTACX_site2930]	9.32 ± 0.48
TATATACATATGTGATGTACATTTTTTGTAATATAA [XGTACX_site6985]	7.71 ± 0.41
ATTTAATTTATTATGTGTACTTATTTAATTAAATTA [XGTACX_site3171]	7.89 ± 0.15
ATATTTTTATTTAAATCACATCATTTTGTTTATTTG [CACACA_negctrl_site1056]	7.8 ± 0.69
CATATAATTATTGAAAGTACATACAAATAAAAAGAT [XGTACX_site6535]	8.12 ± 0.62
TTATATATTTATAAATGTACATATAATTTTTTTATA [XGTACX_site4696]	7.63 ± 0.42
